In one experiment the test system is HSkMC. Briefly: cytotoxicity call (relative viability < 0.9). As to conditions: 10 µM.
Another experiment has as its system HepG2. In words: cytotoxicity call (relative viability < 0.9). Conditions: 10 µM.
Another experiment relates to S. aureus RN4220. Briefly: growth inhibition call (relative growth <= 0.2). Conditions: 50 µM.

The other results are listed elsewhere or left out.

The values that follow come from the antibiotic and cytotoxicity screens of Wong et al. (2023).

On to `COc1ccc(S(=O)(=O)Nc2ccc3c(c2)[C@H]2C[C@H](CC(=O)NCC4CC4)O[C@H](CO)[C@H]2O3)cc1`, for which the cytotoxicity call in the experiment on HSkMC and in the experiment on HepG2 was “inactive” throughout. In the experiment on S. aureus RN4220, the growth inhibition call was “inactive”.
Turning to `C[C@H](CO)N1C[C@H](C)[C@@H](CN(C)C(=O)Nc2ccc3c(c2)OCO3)Oc2ccc(NC(=O)CCN3CCOCC3)cc2C1=O`, the cytotoxicity call in the experiment with HSkMC and with HepG2 was “inactive” in each case. Besides, in the experiment on S. aureus RN4220, the growth inhibition call is “inactive”.
`COc1ccc(NC(=O)Nc2ccc3c(c2)C(=O)N([C@H](C)CO)C[C@@H](C)[C@H](CN(C)CC2CCCCC2)OCCCC[C@@H](C)O3)cc1`: in the experiment with HSkMC, the cytotoxicity call is “inactive”. The cytotoxicity call in the experiment on HepG2 is “active”. Besides, the growth inhibition call in the experiment on S. aureus RN4220 is “inactive”.
Consider `C[C@@H]1CCCCO[C@H](CN(C)C(=O)CCC(F)(F)F)[C@@H](C)CN([C@H](C)CO)C(=O)c2cc(NC(=O)CCCCCC(=O)Nc3ccccc3N)ccc2O1`, for which the cytotoxicity call in the experiment with HSkMC and in the experiment with HepG2 was “inactive” in each case. The growth inhibition call with S. aureus RN4220 was “inactive”.
For `Cc1ncc(CO)c(CO)c1O`, the cytotoxicity call with HSkMC and in the experiment with HepG2 was “inactive” each time. For the same compound, the growth inhibition call in the experiment with S. aureus RN4220 is “inactive”.
Regarding `CS(=O)(=O)Nc1ccc2c(c1)[C@@H]1C[C@@H](CC(=O)NCC3CC3)O[C@H](CO)[C@@H]1O2`, the cytotoxicity call in the experiment on HSkMC and in the experiment with HepG2 was “inactive” throughout. In the experiment with S. aureus RN4220, the growth inhibition call is “inactive”.
In the case of `C[C@H]1CN([C@@H](C)CO)C(=O)CCCn2cc(nn2)CO[C@@H]1CN(C)S(=O)(=O)c1ccc(C#N)cc1`, the cytotoxicity call in the experiment with HSkMC and in the experiment with HepG2 was “inactive” throughout. In the experiment on S. aureus RN4220, the growth inhibition call is “inactive”.
`COc1ccc(S(=O)(=O)Nc2cccc3c2O[C@@H](CN(C)Cc2ccc(-c4ccccc4)cc2)[C@H](C)CN([C@@H](C)CO)C3=O)cc1`: the cytotoxicity call in the experiment with HSkMC and in the experiment on HepG2 was “inactive” in each case. Moreover, in the experiment on S. aureus RN4220, the growth inhibition call is “inactive”.
With `COc1ccc(S(=O)(=O)Nc2ccc3c(c2)C(=O)N([C@H](C)CO)C[C@@H](C)[C@H](CN(C)S(=O)(=O)c2cn(C)cn2)O3)cc1`, the cytotoxicity call with HSkMC and with HepG2 was “inactive” throughout. Further, the growth inhibition call with S. aureus RN4220 was “inactive”.
As to `COc1ccc([Si](C)(C)[C@@H]2[C@@H](CCOC(=O)NCCCCCC(=O)NO)O[C@@]3(C(=O)N(Cc4cccc(I)c4)c4ccccc43)[C@H]2C)cc1`, the cytotoxicity call in the experiment on HSkMC and in the experiment on HepG2 was “inactive” each time. In the experiment on S. aureus RN4220, the growth inhibition call is “inactive”.
As to `Cc1noc(C)c1S(=O)(=O)Nc1ccc2c(c1)CC(=O)N([C@H](C)CO)C[C@@H](C)[C@@H](CN(C)S(=O)(=O)c1cn(C)cn1)O2`, the cytotoxicity call with HSkMC and in the experiment on HepG2 was “inactive” each time. Moreover, in the experiment with S. aureus RN4220, the growth inhibition call was “inactive”.
For `COC(=O)[C@H]1N=C(c2ccc(OCCCOC(=O)NCCCCCC(=O)NO)cc2)O[C@H]1c1ccccc1`, the cytotoxicity call with HSkMC and in the experiment with HepG2 was “inactive” throughout. Besides, the growth inhibition call in the experiment with S. aureus RN4220 is “inactive”.
Take `C[C@@H]1CCCCO[C@@H](CN(C)Cc2ccc3c(c2)OCO3)[C@@H](C)CN([C@@H](C)CO)C(=O)c2cc(NC(=O)CCC(F)(F)F)ccc2O1`: the cytotoxicity call in the experiment on HSkMC and in the experiment on HepG2 was “inactive” in each case. For the same compound, the growth inhibition call with S. aureus RN4220 is “inactive”.
For `C[C@@H]1CCCCO[C@@H](CN(C)C(=O)Nc2cccc3ccccc23)[C@H](C)CN([C@@H](C)CO)C(=O)c2cc(N(C)C)ccc2O1`, the cytotoxicity call in the experiment with HSkMC and in the experiment with HepG2 was “inactive” each time. In the experiment on S. aureus RN4220, the growth inhibition call is “inactive”.
For the compound `C[C@@H]1CN([C@H](C)CO)C(=O)c2cc(NC(=O)c3ccncc3)ccc2O[C@@H]1CN(C)Cc1ccc(C(=O)O)cc1`, the cytotoxicity call in the experiment with HSkMC and in the experiment with HepG2 was “inactive” each time. Moreover, the growth inhibition call in the experiment on S. aureus RN4220 was “inactive”.
With `C[C@@H]1CN([C@H](C)CO)C(=O)c2cc(NS(=O)(=O)c3cccs3)ccc2O[C@@H](C)CCCCO[C@@H]1CN(C)S(=O)(=O)c1ccc(Cl)cc1`, in the experiment with HSkMC, the cytotoxicity call is “inactive”. For the same compound, the cytotoxicity call with HepG2 was “active”. Further, the growth inhibition call in the experiment on S. aureus RN4220 is “inactive”.
As for `C[C@@H]1CCCCO[C@H](CN(C)S(=O)(=O)c2ccc(Cl)cc2)[C@H](C)CN([C@@H](C)CO)C(=O)c2cc(NS(=O)(=O)c3ccccc3)ccc2O1`, the cytotoxicity call in the experiment with HSkMC and in the experiment on HepG2 was “inactive” in each case. The growth inhibition call with S. aureus RN4220 was “inactive”.
Consider `CCOC(=O)Cn1cccc2oc(=O)nc1-2`, for which the cytotoxicity call with HSkMC and in the experiment on HepG2 was “inactive” in each case. In the experiment on S. aureus RN4220, the growth inhibition call is “inactive”.
With `COc1ccc([C@@H]([C@H](Cc2ccccc2)OC(C)=O)N2C[C@@H]3[C@H]([C@@H]2Cc2ccccc2)N(C)O[C@@]3(O)[C@@H](O)c2ccccc2)cc1`, the cytotoxicity call with HSkMC and in the experiment with HepG2 was “inactive” throughout. In addition, in the experiment with S. aureus RN4220, the growth inhibition call was “inactive”.
For `CC(C)NC(=O)Nc1ccc2c(c1)C(=O)N([C@@H](C)CO)C[C@@H](C)[C@@H](CN(C)S(=O)(=O)c1cn(C)cn1)OCCCC[C@@H](C)O2`, the cytotoxicity call in the experiment with HSkMC and in the experiment with HepG2 was “inactive” each time. The growth inhibition call with S. aureus RN4220 was “inactive”.
For the compound `C[C@@H]1CN([C@H](C)CO)C(=O)c2cc(NC(=O)Cn3cnnn3)ccc2O[C@@H]1CN(C)Cc1ccc(C(=O)Nc2ccccc2N)cc1`, the cytotoxicity call with HSkMC and in the experiment with HepG2 was “inactive” in each case. Further, the growth inhibition call in the experiment with S. aureus RN4220 was “inactive”.
Turning to `O=C(CCCCCNC(=O)OCCCOc1ccc(C2=N[C@@]3(Cc4ccccc4N(CCS(=O)(=O)c4ccccc4)C3=O)[C@H](c3ccccc3)O2)cc1)NO`, the cytotoxicity call in the experiment on HSkMC (human skeletal muscle cells) and in the experiment on HepG2 was “inactive” each time. In addition, the growth inhibition call in the experiment with S. aureus RN4220 was “inactive”.
Consider `Cc1ccc(S(=O)(=O)Nc2ccc3c(c2)C(=O)N([C@@H](C)CO)C[C@@H](C)[C@H](CN(C)C(=O)CCC(F)(F)F)OCCCC[C@@H](C)O3)cc1`, for which the cytotoxicity call with HSkMC and with HepG2 was “inactive” each time. The growth inhibition call in the experiment with S. aureus RN4220 was “inactive”.
